Results are given in words; binding and its absence hold for the method and conditions named. Some results given as binding are weak or reduced against the parent protein; the word gives no strength. For some of these results: Where a sequence is shown, tags or fusion partners need not be part of it. Each block holds one molecule with its values, some of them ahead of it.
Columns and labels:
[1] = target: LexA–Nup2 (Saccharomyces cerevisiae) (UniProt P32499); assay: two-hybrid; DupLEX-A system; EGY48 cells with LexA operon–LEU2 reporter, LexA–Nup2 bait mated with B42 activation domain prey strains; growth on histidine- and leucine-deficient medium, 30°C, 2 d
[2] = target: recombinant importin α (Srp1) (Saccharomyces cerevisiae) (UniProt Q02821); assay: pull-down; in vitro interaction of SUMO-conjugated and unconjugated Nup2 with recombinant importin α (Srp1); format in Fig. S2C, not shown; both purified
[3] = target: MBP–Nup60 (Saccharomyces cerevisiae) (UniProt P39705); assay: pull-down; MBP–Nup60 coupled to amylose agarose resin; GST–Nup2N processed for in vitro SUMOylation with E1, Ubc9 and Smt3, with or without ATP; bound proteins detected by anti-GST western blot; both purified

Sequences of proteins named here, by UniProt entry; tags and fusion partners are left off.
UniProt Q02821: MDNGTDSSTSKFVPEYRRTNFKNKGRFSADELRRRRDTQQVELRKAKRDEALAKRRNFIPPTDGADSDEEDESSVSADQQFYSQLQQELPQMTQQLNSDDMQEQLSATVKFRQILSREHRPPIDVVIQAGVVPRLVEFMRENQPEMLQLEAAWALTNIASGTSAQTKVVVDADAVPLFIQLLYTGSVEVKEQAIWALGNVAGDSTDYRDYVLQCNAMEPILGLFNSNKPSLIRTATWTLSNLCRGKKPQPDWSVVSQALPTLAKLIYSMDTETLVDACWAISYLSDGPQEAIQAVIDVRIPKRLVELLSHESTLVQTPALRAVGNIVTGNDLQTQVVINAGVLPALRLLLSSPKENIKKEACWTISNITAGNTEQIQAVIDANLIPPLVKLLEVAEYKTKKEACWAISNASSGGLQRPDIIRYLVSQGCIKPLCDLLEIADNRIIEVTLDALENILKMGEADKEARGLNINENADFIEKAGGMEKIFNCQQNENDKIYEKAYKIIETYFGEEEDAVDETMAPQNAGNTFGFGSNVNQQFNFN
UniProt P39705: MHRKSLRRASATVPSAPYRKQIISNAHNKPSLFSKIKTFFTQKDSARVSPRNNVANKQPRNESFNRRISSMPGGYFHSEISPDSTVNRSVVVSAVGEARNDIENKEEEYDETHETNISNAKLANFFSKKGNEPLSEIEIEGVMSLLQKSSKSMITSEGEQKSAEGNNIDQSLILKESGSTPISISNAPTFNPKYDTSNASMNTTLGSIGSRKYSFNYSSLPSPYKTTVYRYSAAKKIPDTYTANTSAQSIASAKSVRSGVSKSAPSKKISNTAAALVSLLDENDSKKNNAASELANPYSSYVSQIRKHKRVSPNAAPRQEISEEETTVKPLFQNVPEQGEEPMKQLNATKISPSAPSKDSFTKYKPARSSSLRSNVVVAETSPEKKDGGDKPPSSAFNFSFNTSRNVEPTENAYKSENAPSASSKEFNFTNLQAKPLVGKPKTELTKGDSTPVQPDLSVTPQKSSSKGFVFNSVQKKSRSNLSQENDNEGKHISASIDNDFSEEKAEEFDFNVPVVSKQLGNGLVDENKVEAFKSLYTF
UniProt Q12306: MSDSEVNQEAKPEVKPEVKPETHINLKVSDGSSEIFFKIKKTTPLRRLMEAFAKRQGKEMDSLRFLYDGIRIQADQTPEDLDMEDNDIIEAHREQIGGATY
UniProt P15732: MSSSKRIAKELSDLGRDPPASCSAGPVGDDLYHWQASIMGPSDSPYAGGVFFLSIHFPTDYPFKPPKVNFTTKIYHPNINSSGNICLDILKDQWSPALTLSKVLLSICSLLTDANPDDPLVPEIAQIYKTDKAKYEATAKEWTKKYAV

Molecule: B42–SUMO (Smt3) (from UniProt Q12306 1-101)
binding [1]: binds

B1: B42–Cst9 (enzyme, UniProt Q06032 1-482)
chain: MGGYLAIVFIPQTNTKSMREKKQKCLKQVRRLSLISPKKYIMPDSIFEQPFVYCGVCHRRTSHGDPLRLTSCAHILCSQHSPLTSKVCPICRSSDISIINLVESKQLPTDIRIFFEPLPPLLESLYNVSQFQLNGLSKQCQYYQNHCLKLREKCARQQQLLYQAKIELDSMAILKKRIQELESVLNHNNVSSMSVGVLPTRNSHQNHYQPPPTVDLTVDDNSLEEFEAKSFIKKLKKNSSLRNSSKNNNGTVTPSTSGRVNKNQPLFMETLNNPNRNSIPPPGMNPNANSNLPNISTIAESTNLNRFSFSPVRVAKGFDGKLPNLDILTNNGSVSSKNISRLSSASLQPSSPLSSSSNRLILPNSNLKELHHSNTPLTSTSTQFPSALEKLKITRKRNNTISGSNRITHNLSSHVRSSGLAFSSSSNSLQQSKLPKSNILKRSNSTQQLTNTHLKSDNHLPPRSSNTVLGSSKKNNKFRRIR
binding [1]: no binding

B2: B42–Siz1 (enzyme, UniProt Q04195 1-904)
chain: MINLEDYWEDETPGPDREPTNELRNEVEETITLMELLKVSELKDICRSVSFPVSGRKAVLQDLIRNFLQNALVVGKSDPYRVQAVKFLIERIRKNEPLPVYKDLWNALRKGTPLSAITVRSMEGPPTVQQQSPSVIRQSPTQRRKTSTTSSTSRAPPPTNPDASSSSSSFAVPTIHFKESPFYKIQRLIPELVMNVEVTGGRGMCSAKFKLSKADYNLLSNPNSKHRLYLFSGMINPLGSRGNEPIQFPFPNELRCNNVQIKDNIRGFKSKPGTAKPADLTPHLKPYTQQNNVELIYAFTTKEYKLFGYIVEMITPEQLLEKVLQHPKIIKQATLLYLKKTLREDEEMGLTTTSTIMSLQCPISYTRMKYPSKSINCKHLQCFDALWFLHSQLQIPTWQCPVCQIDIALENLAISEFVDDILQNCQKNVEQVELTSDGKWTAILEDDDDSDSDSNDGSRSPEKGTSVSDHHCSSSHPSEPIIINLDSDDDEPNGNNPHVTNNHDDSNRHSNDNNNNSIKNNDSHNKNNNNNNNNNNNNNDNNNSIENNDSNSNNKHDHGSRSNTPSHNHTKNLMNDNDDDDDDRLMAEITSNHLKSTNTDILTEKGSSAPSRTLDPKSYNIVASETTTPVTNRVIPEYLGNSSSYIGKQLPNILGKTPLNVTAVDNSSHLISPDVSVSSPTPRNTASNASSSALSTPPLIRMSSLDPRGSTVPDKTIRPPINSNSYTASISDSFVQPQESSVFPPREQNMDMSFPSTVNSRFNDPRLNTTRFPDSTLRGATILSNNGLDQRNNSLPTTEAITRNDVGRQNSTPVLPTLPQNVPIRTNSNKSGLPLINNENSVPNPPNTATIPLQKSRLIVNPFIPRRPYSNVLPQKRQLSNTSSTSPIMGTWKTQDYGKKYNSG
binding [1]: binds

B3: B42–Aos1 (enzyme, UniProt Q06624 1-347)
chain: MDMKVEKLSEDEIALYDRQIRLWGMTAQANMRSAKVLLINLGAIGSEITKSIVLSGIGHLTILDGHMVTEEDLGSQFFIGSEDVGQWKIDATKERIQDLNPRIELNFDKQDLQEKDEEFFQQFDLVVATEMQIDEAIKINTLTRKLNIPLYVAGSNGLFAYVFIDLIEFISEDEKLQSVRPTTVGPISSNRSIIEVTTRKDEEDEKKTYERIKTKNCYRPLNEVLSTATLKEKMTQRQLKRVTSILPLTLSLLQYGLNQKGKAISFEQMKRDAAVWCENLGVPATVVKDDYIQQFIKQKGIEFAPVAAIIGGAVAQDVINILGKRLSPLNNFIVFDGITLDMPLFEF
binding [1]: binds

B4: B42–Mms21 (enzyme, UniProt P38632 1-267)
chain: MALNDNPIPKSVPLHPKSGKYFHNLHARDLSNIYQQCYKQIDETINQLVDSTSPSTIGIEEQVADITSTYKLLSTYESESNSFDEHIKDLKKNFKQSSDACPQIDLSTWDKYRTGELTAPKLSELYLNMPTPEPATMVNNTDTLKILKVLPYIWNDPTCVIPDLQNPADEDDLQIEGGKIELTCPITCKPYEAPLISRKCNHVFDRDGIQNYLQGYTTRDCPQAACSQVVSMRDFVRDPIMELRCKIAKMKESQEQDKRSSQAIDVL
binding [1]: no binding

B5: B42–Siz2 (enzyme, UniProt Q12216 1-726)
chain: MASVMSNNNNNNNNNNASYMFTNPLSNTGGGLINEIKDAINEMEQLKVLELKQICKSLDLSITGKKAVLQDRIKQFLRKSCDIGHIDPWRPKAIKILIAKVRINSSLPKYSTLWETLKTGAFKHPVASGQLPVTALQSTALPPYSQQQALAYSFTSPFYKPIVQIPDANKKLKQSAGRGCTKMKFKVSKSNHDLLKSNKSYKLYLFSGFSIPFIYETVGHEAIDFPYPCELVFNGTKLEDNVKGLKKQNGTGNPANLTPYLKVPTEMNHLDLHYLNIDKEYSISCFIVEVFSPEALLGKILKRPKIIKQATTAYIKRTLNEQDDDDIITTSTVLSLQCPISCTRMKYPAKTDQCKHIQCFDALWFLHSQSQVPTWQCPICQHPIKFDQLKISEFVDNIIQNCNEDVEQVEISVDGSWKPIHNSSAVITDTVNQNHSVKNENQGTVKQEQDYDSRNAFDTNLRNGSNHNEPEIISLDSSDDEAFIPASKSFPTHVNPRNDQLRADIFPSESEGSSDYNPNHTSTPKGSPTMDQDNYQDAFQMRSFLNQGATTNINDTPTNNSSINSFVTATNGDSRIFYNRGPSTPLLPAVLQNLTNQTEAQRNPYGPNYNTTAQDRNLLGIEGDLPPIPPVDPNSEAETELPTRTTSAAHLPPYIHVSTSGHGDDGKIRKRRHSNVSIYIPKNPYATLMKRRPQANHAIMNKTLAQTNDFNTSAQDNSEVVDLTSD
binding [1]: binds

Next, values leading:

binding [1]: no binding
Molecule: B42–Ubc5 (from UniProt P15732 1-148) (enzyme)

binding [2]: binds | binding [3]: binds
B6: GST–Nup2N (recombinant GST-conjugated Nup2 N-terminal residues 1–174), SUMO-unconjugated (domain or fragment, UniProt P32499 1-174)
chain: MAKRVADAQIQRETYDSNESDDDVTPSTKVASSAVMNRRKIAMPKRRMAFKPFGSAKSDETKQASSFSFLNRADGTGEAQVDNSPTTESNSRLKALNLQFKAKVDDLVLGKPLADLRPLFTRYELYIKNILEAPVKSIENPTQTKGNDAKPAKVEDVQKSSDSSSEDEVKVEGP

binding [1]: binds
B7: B42–Ubc9 (enzyme, UniProt P50623 1-157)
chain: MSSLCLQRLQEERKKWRKDHPFGFYAKPVKKADGSMDLQKWEAGIPGKEGTNWAGGVYPITVEYPNEYPSKPPKVKFPAGFYHPNVYPSGTICLSILNEDQDWRPAITLKQIVLGVQDLLDSPNPNSPAQEPAWRSFSRNKAEYDKKVLLQAKQYSK

Reference: paper PMC6467484
